# According to the supplement of paper PMC8728848:
# The other results are listed elsewhere or left out.
# B1: Gal-9-hFc (Mus musculus), O08573-2 (protein)
# chain: MALFSAQSPYINPIIPFTGPIQGGLQEGLQVTLQGTTKSFAQRFVVNFQNSFNGNDIAFHFNPRFEEGGYVVCNTKQNGQWGPEERKMQMPFQKGMPFELCFLVQRSEFKVMVNKKFFVQYQHRVPYHLVDTIAVSGCLKLSFITFQTQNFRPAHQAPMAQTTIHMVHSTPGQMFSTPGIPPVVYPTPAYTIPFYTPIPNGLYPSKSIMISGNVLPDATRFHINLRCGGDIAFHLNPRFNENAVVRNTQINNSWGQEERSLLGRMPFSRGQSFSVWIICEGHCFKVAVNGQHMCEYYHRLKNLQDINTLEVAGDIQLTHVQT
# Key:
# Assay in all cases: glycan array binding signal (z-score within array); higher = stronger binding
# Conditions in all cases: glycan notation: IUPAC condensed, linker removed
# [1] = molecular target: GalNAc(a1-3)GalNAc(b1-3)Gal(a1-4)Gal(b1-4)GlcNAc
# Procedure, shortened: (§1)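 The Consortium for Functional Glycomics database supplied 3228 glycan arrays, of which those lacking an available protein sequence were dropped. The binding signal, a within-array Z-score, was averaged across arrays of the same protein sequence and across linkers. Negative scores can be read as non-binding.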
# GalNAc(b1-3)Gal = molecular target: GalNAc(b1-3)Gal
# Procedure, shortened: as §1
# [2] = molecular target: GalNAc(b1-3)Gal(a1-4)Gal(b1-4)GlcNAc
# Procedure, shortened: as §1
# [3] = molecular target: GalNAc(b1-3)Gal(a1-4)Gal(b1-4)GlcNAc(b1-3)Gal(b1-4)Glc
# Procedure, shortened: as §1
# [4] = molecular target: GalNAc(b1-3)Gal(a1-6)Gal(b1-4)Glc
# Procedure, shortened: as §1
# GalNAc(b1-3)GalNAc = molecular target: GalNAc(b1-3)GalNAc
# Procedure, shortened: as §1
# GalNAc(b1-3)GlcNAc = molecular target: GalNAc(b1-3)GlcNAc
# Procedure, shortened: as §1
# GalNAc(b1-4)Gal(b1-4)Glc = molecular target: GalNAc(b1-4)Gal(b1-4)Glc
# Procedure, shortened: as §1
# GalNAc(b1-4)GlcNAc = molecular target: GalNAc(b1-4)GlcNAc
# Procedure, shortened: as §1
# [5] = molecular target: GalNAc(b1-4)GlcNAc(b1-2)Man
# Procedure, shortened: as §1
# [6] = molecular target: GalNAc(b1-4)GlcNAc(b1-2)Man(a1-3)[GalNAc(b1-4)GlcNAc(b1-2)Man(a1-6)]Man(b1-4)GlcNAc(b1-4)GlcNAc
# Procedure, shortened: as §1
# [7] = molecular target: GalNAc(b1-4)GlcNAc(b1-3)GalNAc(b1-4)GlcNAc
# Procedure, shortened: as §1
# GalNAc(b1-4)GlcNAc6S = molecular target: GalNAc(b1-4)GlcNAc6S
# Procedure, shortened: as §1
# GalNAc(b1-6)GalNAc = molecular target: GalNAc(b1-6)GalNAc
# Procedure, shortened: as §1
# GalNAc3S(b1-4)GlcNAc = molecular target: GalNAc3S(b1-4)GlcNAc
# Procedure, shortened: as §1
# GalNAc3S(b1-4)GlcNAc3S = molecular target: GalNAc3S(b1-4)GlcNAc3S
# Procedure, shortened: as §1
# [8] = molecular target: GalNAc3S(b1-4)[Fuc(a1-3)]GlcNAc
# Procedure, shortened: as §1
# GalNAc4S6S(b1-4)GlcNAc = molecular target: GalNAc4S6S(b1-4)GlcNAc
# Procedure, shortened: as §1
# GalNAc6S(b1-4)GlcNAc = molecular target: GalNAc6S(b1-4)GlcNAc
# Procedure, shortened: as §1
# Glc(a1-4)Glc = molecular target: Glc(a1-4)Glc
# Procedure, shortened: as §1
# [9] = molecular target: Glc(a1-4)Glc(a1-4)Glc(a1-4)Glc
# Procedure, shortened: as §1
# Glc(a1-6)Glc(a1-6)Glc = molecular target: Glc(a1-6)Glc(a1-6)Glc
# Procedure, shortened: as §1
# [10] = molecular target: Glc(a1-6)Glc(a1-6)Glc(a1-6)Glc
# Procedure, shortened: as §1
# Glc(b1-4)Glc = molecular target: Glc(b1-4)Glc
# Procedure, shortened: as §1
# Glc(b1-6)Glc = molecular target: Glc(b1-6)Glc
# Procedure, shortened: as §1
# GlcA(b1-3)Gal = molecular target: GlcA(b1-3)Gal
# Procedure, shortened: as §1
# GlcA(b1-3)GlcNAc = molecular target: GlcA(b1-3)GlcNAc
# Procedure, shortened: as §1
# GlcA(b1-6)Gal = molecular target: GlcA(b1-6)Gal
# Procedure, shortened: as §1
# [11] = molecular target: GlcA3S(b1-3)Gal(b1-4)GlcNAc(b1-2)Man
# Procedure, shortened: as §1
# [12] = molecular target: GlcA3S(b1-3)Gal(b1-4)GlcNAc(b1-3)Gal(b1-4)Glc
# Procedure, shortened: as §1
# [13] = molecular target: GlcNAc(a1-3)Gal(b1-4)GlcNAc
# Procedure, shortened: as §1
# [14] = molecular target: GlcNAc(a1-4)Gal(b1-3)GlcNAc
# Procedure, shortened: as §1
# [15] = molecular target: GlcNAc(a1-4)Gal(b1-4)GalNAc
# Procedure, shortened: as §1
# [16] = molecular target: GlcNAc(a1-4)Gal(b1-4)GlcNAc
# Procedure, shortened: as §1
# [17] = molecular target: GlcNAc(a1-4)Gal(b1-4)GlcNAc(b1-3)Gal(b1-4)Glc
# Procedure, shortened: as §1
# [18] = molecular target: GlcNAc(a1-4)Gal(b1-4)GlcNAc(b1-3)Gal(b1-4)GlcNAc
# Procedure, shortened: as §1
# [19] = molecular target: GlcNAc(a1-4)Gal(b1-4)GlcNAc(b1-3)Gal(b1-4)GlcNAc(b1-3)Gal(b1-4)GlcNAc
# Procedure, shortened: as §1
# [20] = molecular target: GlcNAc(a1-4)Gal(b1-4)GlcNAc(b1-3)Gal(b1-4)[Fuc(a1-3)]GlcNAc(b1-3)Gal(b1-4)[Fuc(a1-3)]GlcNAc
# Procedure, shortened: as §1
binder,measurement,setting,value
B1,glycan array binding signal (z-score),[1],-0.363
same,glycan array binding signal (z-score),GalNAc(b1-3)Gal,-0.279
same,glycan array binding signal (z-score),[2],-0.351
same,glycan array binding signal (z-score),[3],-0.251
same,glycan array binding signal (z-score),[4],-0.602
same,glycan array binding signal (z-score),GalNAc(b1-3)GalNAc,-0.448
same,glycan array binding signal (z-score),GalNAc(b1-3)GlcNAc,-0.308
same,glycan array binding signal (z-score),GalNAc(b1-4)Gal(b1-4)Glc,0.615
same,glycan array binding signal (z-score),GalNAc(b1-4)GlcNAc,-0.176
same,glycan array binding signal (z-score),[5],-0.497
same,glycan array binding signal (z-score),[6],0.338
same,glycan array binding signal (z-score),[7],-0.192
same,glycan array binding signal (z-score),GalNAc(b1-4)GlcNAc6S,-0.156
same,glycan array binding signal (z-score),GalNAc(b1-6)GalNAc,-0.076
same,glycan array binding signal (z-score),GalNAc3S(b1-4)GlcNAc,0.448
same,glycan array binding signal (z-score),GalNAc3S(b1-4)GlcNAc3S,-0.064
same,glycan array binding signal (z-score),[8],-0.05
same,glycan array binding signal (z-score),GalNAc4S6S(b1-4)GlcNAc,-0.079
same,glycan array binding signal (z-score),GalNAc6S(b1-4)GlcNAc,-0.416
same,glycan array binding signal (z-score),Glc(a1-4)Glc,0.158
same,glycan array binding signal (z-score),[9],-0.126
same,glycan array binding signal (z-score),Glc(a1-6)Glc(a1-6)Glc,0.138
same,glycan array binding signal (z-score),[10],0.251
same,glycan array binding signal (z-score),Glc(b1-4)Glc,0.009
same,glycan array binding signal (z-score),Glc(b1-6)Glc,0.449
same,glycan array binding signal (z-score),GlcA(b1-3)Gal,0.598
same,glycan array binding signal (z-score),GlcA(b1-3)GlcNAc,-0.298
same,glycan array binding signal (z-score),GlcA(b1-6)Gal,1.85
same,glycan array binding signal (z-score),[11],0.573
same,glycan array binding signal (z-score),[12],0.664
same,glycan array binding signal (z-score),[13],-0.192
same,glycan array binding signal (z-score),[14],-0.396
same,glycan array binding signal (z-score),[15],-0.234
same,glycan array binding signal (z-score),[16],-0.291
same,glycan array binding signal (z-score),[17],-0.272
same,glycan array binding signal (z-score),[18],-0.186
same,glycan array binding signal (z-score),[19],-0.398
same,glycan array binding signal (z-score),[20],1.19
